Among the data in the supplement of paper PMC4604168 (melanoma cell lines) are cell count values, retold here.

The other results are listed elsewhere or left out. Most values come without repeats; read them as rough.
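Also: cells treated in 1,536-well plates, then fixed and DAPI-stained, with nuclei counted from automated high-throughput microscope images.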

For this experiment, the system named is A375. Kind of experiment: cell count relative to DMSO control; melanoma cells; higher = more viable cells. The following applies: library dose: standard library concentration; 72 h.
Turning to `O=c1[nH]nc(Sc2ncc([N+](=O)[O-])s2)n1-c1ccc2c(c1)OCCO2` + CN(C)S(=O)(=O)c1ccc2c(c1)/C(=C/c1cc3c([nH]1)CCCC3)C(=O)N2 [SU6656] (first compound 1 µM, partner dose 2 µM), the cell count is 110%.
On to `O=c1[nH]nc(Sc2ncc([N+](=O)[O-])s2)n1-c1ccc2c(c1)OCCO2` + CNC(=O)c1cc(Oc2ccc(NC(=O)Nc3ccc(Cl)c(C(F)(F)F)c3)cc2)ccn1 [sorafenib] (first compound 1 µM, partner dose 2 µM), for which the cell count worked out at 117%.
For `O=c1[nH]nc(Sc2ncc([N+](=O)[O-])s2)n1-c1ccc2c(c1)OCCO2` + Nc1ncn([C@H]2C[C@H](O)[C@@H](CO)O2)c(=O)n1 [decitabine] (first compound 1 µM, partner dose 0.5 µM), the cell count stood at 93.2%.
Compound `COc1cc(Nc2ncc(F)c(Nc3ccc4c(n3)NC(=O)C(C)(C)O4)n2)cc(OC)c1OC` [Tamatinib] + Cc1cc(N2CCOCC2)cc2[nH]c(-c3c(NC[C@@H](O)c4cccc(Cl)c4)cc[nH]c3=O)nc12 [BMS536924] (first compound 2 µM, partner dose 1 µM) returned a cell count of 117%.
Regarding `COc1cc(Nc2ncc(F)c(Nc3ccc4c(n3)NC(=O)C(C)(C)O4)n2)cc(OC)c1OC` [Tamatinib] + CN(C)S(=O)(=O)c1ccc2c(c1)/C(=C/c1cc3c([nH]1)CCCC3)C(=O)N2 [SU6656] (first compound 2 µM, partner dose 2 µM), the cell count was determined as 107%.
For `COc1cc(Nc2ncc(F)c(Nc3ccc4c(n3)NC(=O)C(C)(C)O4)n2)cc(OC)c1OC` [Tamatinib] + CO[C@@H]1[C@H](N(C)C(=O)c2ccccc2)C[C@H]2O[C@]1(C)n1c3ccccc3c3c4c(c5c6ccccc6n2c5c31)C(=O)NC4 [Midostaurin] (first compound 2 µM, partner dose 0.4 µM) the value was 71.1%; for `O=c1[nH]nc(Sc2ncc([N+](=O)[O-])s2)n1-c1ccc2c(c1)OCCO2` + C=CCNC1=C2C[C@@H](C)C[C@H](OC)[C@H](O)[C@@H](C)/C=C(\C)[C@H](OC(N)=O)[C@@H](OC)/C=C\C=C(/C)C(=O)NC(=CC1=O)C2=O [Tanespimycin] (first compound 1 µM, partner dose 0.01 µM), 76.4%.
With `O=C(O)c1ccc(-c2c[nH]c3ncc(-c4ccccc4)cc23)cc1C1CCCC1` + COc1cc2c(Oc3ccc4[nH]c(C)cc4c3F)ncnc2cc1OCCCN1CCCC1 [cediranib] (first compound 0.8 µM, partner dose 2 µM) the figure was 107%; with `O=c1[nH]nc(Sc2ncc([N+](=O)[O-])s2)n1-c1ccc2c(c1)OCCO2` + CN1CCN(c2ccc3nc(-c4c(N)c5c(F)cccc5[nH]c4=O)[nH]c3c2)CC1 [Dovitinib] (first compound 1 µM, partner dose 0.5 µM), 56.3%.
For `CC1(C)NC(=O)N(c2ccc([N+](=O)[O-])c(C(F)(F)F)c2)C1=O` [nilutamide] + Cc1ccc(NC(=O)c2cccc(N(C)C)c2)cc1NC(=O)c1ccc(O)cc1 [ZM336372] (first compound 5 µM, partner dose 10 µM), the cell count was 96.6%.
Compound `O=c1[nH]nc(Sc2ncc([N+](=O)[O-])s2)n1-c1ccc2c(c1)OCCO2` + Cn1sc(=O)n(Cc2ccccc2)c1=O [TDZD-8] (first compound 1 µM, partner dose 2 µM) registered a cell count of 60.2%.
The compound `COc1cc(Nc2ncc(F)c(Nc3ccc4c(n3)NC(=O)C(C)(C)O4)n2)cc(OC)c1OC` [Tamatinib] + NCC(=O)Nc1ccc(-n2nc(C(F)(F)F)cc2-c2ccc3c(ccc4ccccc43)c2)cc1 [OSU03012] (first compound 2 µM, partner dose 5 µM) displayed a cell count of 80.6%.
`Cn1cncc1[C@@](N)(c1ccc(Cl)cc1)c1ccc2c(c1)c(-c1cccc(Cl)c1)cc(=O)n2C` [tipifarnib] + O=C(O)c1ccc(-c2c[nH]c3ncc(-c4ccccc4)cc23)cc1C1CCCC1 [GSK650394] (first compound 0.05 µM, partner dose 0.8 µM) displayed a cell count of 104%.
`CC1(C)NC(=O)N(c2ccc([N+](=O)[O-])c(C(F)(F)F)c2)C1=O` [nilutamide] + CO[C@@H]1[C@H](N(C)C(=O)c2ccccc2)C[C@H]2O[C@]1(C)n1c3ccccc3c3c4c(c5c6ccccc6n2c5c31)C(=O)NC4 [Midostaurin] (first compound 5 µM, partner dose 0.4 µM) gave a cell count of 73.5%.
